{
  "source": "paper PMC10668032",
  "note": "The other results are listed elsewhere or left out. At the low end of the ranking, values are background and their order means little.",
  "data": [
    {"molecular_target": "SIX1-Q177R homeodomain (UniProt Q15475)", "test": "universal protein binding microarray", "settings": "Universal all-10-mer PBM (8x60K, AMADID 030236), 300 nM GST-tagged protein, Alexa Fluor 488 anti-GST; buffer, salt, pH and temperature not stated; high values mean tight binding; most listed sequences are background and not binding sites; double strand, one strand shown", "units": {"binding signal": "E-score"}, "values": [
      {"sequence": "TGATTAAA", "binding signal": -0.0768},
      {"sequence": "AACCAGGC", "binding signal": -0.0657},
      {"sequence": "CCTTCAAC", "binding signal": -0.0886},
      {"sequence": "AAACGATC", "binding signal": -0.185},
      {"sequence": "ACTACGGG", "binding signal": 0.147},
      {"sequence": "CGATATCG", "binding signal": -0.108},
      {"sequence": "AACCATCA", "binding signal": -0.149},
      {"sequence": "CTGAGGCC", "binding signal": -0.246},
      {"sequence": "GAGTCACC", "binding signal": 0.157},
      {"sequence": "GGACAAAA", "binding signal": -0.117},
      {"sequence": "CCACGGGG", "binding signal": 0.194},
      {"sequence": "AGATCCAC", "binding signal": 0.00024},
      {"sequence": "AAGCGACC", "binding signal": -0.0733},
      {"sequence": "CTCAATGC", "binding signal": -0.148},
      {"sequence": "AGGAGGAT", "binding signal": -0.0817},
      {"sequence": "ATAGTGTA", "binding signal": 0.391},
      {"sequence": "CATTTGGC", "binding signal": -0.166},
      {"sequence": "CTCTGTCC", "binding signal": -0.0676},
      {"sequence": "GTCTACGA", "binding signal": -0.168},
      {"sequence": "TGCTCTAA", "binding signal": -0.0176},
      {"sequence": "TCTTAAAA", "binding signal": -0.318},
      {"sequence": "CTAGTCCC", "binding signal": -0.19},
      {"sequence": "AGATTAGG", "binding signal": -0.278},
      {"sequence": "CCGGGTCA", "binding signal": 0.285},
      {"sequence": "TTACTGAA", "binding signal": -0.217},
      {"sequence": "CATCTTAA", "binding signal": -0.105},
      {"sequence": "ACCTGCAG", "binding signal": 0.0645},
      {"sequence": "AATGGTAA", "binding signal": -0.086},
      {"sequence": "AGCGTTAC", "binding signal": 0.0757},
      {"sequence": "TACATAAA", "binding signal": -0.0372},
      {"sequence": "AGCGCCTC", "binding signal": -0.164},
      {"sequence": "AGCGTCCC", "binding signal": 0.0752},
      {"sequence": "AGCTATAG", "binding signal": -0.103},
      {"sequence": "ATCGCGAG", "binding signal": 0.00577},
      {"sequence": "CTAACCTC", "binding signal": -0.036},
      {"sequence": "CCCGCTTC", "binding signal": 0.00549},
      {"sequence": "AAGGCAAT", "binding signal": -0.361},
      {"sequence": "AGAACTCT", "binding signal": -0.051},
      {"sequence": "GACGGCTA", "binding signal": -0.106},
      {"sequence": "CAGCGCGG", "binding signal": 0.0508},
      {"sequence": "CGCTAAGC", "binding signal": -0.027},
      {"sequence": "ACCCAGAA", "binding signal": 0.179},
      {"sequence": "CTTCAATC", "binding signal": -0.163},
      {"sequence": "TGACTACA", "binding signal": 0.0666},
      {"sequence": "CTAGTACC", "binding signal": 0.0993},
      {"sequence": "CAAGACGG", "binding signal": 0.0717},
      {"sequence": "ATCAACCC", "binding signal": 0.11},
      {"sequence": "ACGGGGGG", "binding signal": 0.141},
      {"sequence": "AGCAATGC", "binding signal": -0.118},
      {"sequence": "CATTCGAA", "binding signal": -0.225},
      {"sequence": "TAAAAAGA", "binding signal": -0.266},
      {"sequence": "AATAAAAG", "binding signal": -0.0151},
      {"sequence": "ATTAACCC", "binding signal": 0.187},
      {"sequence": "AGCACGAC", "binding signal": 0.0753},
      {"sequence": "AATTACTG", "binding signal": -0.0851},
      {"sequence": "AGGAGCAC", "binding signal": -0.00598},
      {"sequence": "CTCTAGTA", "binding signal": 0.0726},
      {"sequence": "CAGAAATG", "binding signal": 0.0828},
      {"sequence": "CCAAAGCC", "binding signal": -0.174},
      {"sequence": "CCCTTATA", "binding signal": 0.0828},
      {"sequence": "ACCCTGCG", "binding signal": 0.107},
      {"sequence": "AAACGGAC", "binding signal": -0.246},
      {"sequence": "CTGAGTTC", "binding signal": -0.0729},
      {"sequence": "AGGCGAAG", "binding signal": -0.082},
      {"sequence": "GTCAACTA", "binding signal": -0.0849},
      {"sequence": "AACCTCCC", "binding signal": 0.106},
      {"sequence": "CTGTCATA", "binding signal": -0.0884},
      {"sequence": "CCGTTGCA", "binding signal": 0.0624},
      {"sequence": "AACGTATA", "binding signal": -0.259},
      {"sequence": "ACGGAAGA", "binding signal": -0.0672},
      {"sequence": "GCGAACCA", "binding signal": -0.0706},
      {"sequence": "CCAGAGCG", "binding signal": -0.0316},
      {"sequence": "CAGTCTAC", "binding signal": -0.159},
      {"sequence": "ATCTGAAG", "binding signal": -0.239},
      {"sequence": "CGCCAGTC", "binding signal": 0.0338},
      {"sequence": "GCAACAGA", "binding signal": -0.162},
      {"sequence": "CAGGCCGA", "binding signal": 0.0294},
      {"sequence": "ATGCAGGC", "binding signal": -0.00914},
      {"sequence": "AGCCATTG", "binding signal": -0.121},
      {"sequence": "GCTAAAGA", "binding signal": -0.212},
      {"sequence": "ACTTGCCT", "binding signal": -0.0596},
      {"sequence": "GCTGATTA", "binding signal": -0.152},
      {"sequence": "CCTCCTCC", "binding signal": 0.00537},
      {"sequence": "CGCACAAG", "binding signal": 0.0176},
      {"sequence": "ACCCGGCT", "binding signal": 0.202},
      {"sequence": "CCAATCTA", "binding signal": -0.0409},
      {"sequence": "CCACCAAC", "binding signal": 0.0288},
      {"sequence": "AATAAGTA", "binding signal": -0.0835},
      {"sequence": "GAGCGCCA", "binding signal": -0.0784},
      {"sequence": "ACCCCCTG", "binding signal": 0.328},
      {"sequence": "CCCGTGCG", "binding signal": 0.111},
      {"sequence": "AATAAATT", "binding signal": -0.132},
      {"sequence": "CGGAATAC", "binding signal": 0.0967},
      {"sequence": "AATTCACG", "binding signal": -0.2},
      {"sequence": "AAAATAGC", "binding signal": -0.205},
      {"sequence": "GGCATGAA", "binding signal": -0.0861},
      {"sequence": "ATGATTCC", "binding signal": 0.126},
      {"sequence": "AGGGGGAG", "binding signal": -0.129},
      {"sequence": "GTCCCGTA", "binding signal": -0.035},
      {"sequence": "GATAAACC", "binding signal": -0.134},
      {"sequence": "ATGCCGGC", "binding signal": -0.0853},
      {"sequence": "CCAGACTC", "binding signal": -0.127},
      {"sequence": "AACCGCAC", "binding signal": 0.13},
      {"sequence": "GAGAAAAC", "binding signal": -0.0866},
      {"sequence": "GCTGAACC", "binding signal": -0.0567},
      {"sequence": "CACTTGGG", "binding signal": 0.0226},
      {"sequence": "CCTATGGC", "binding signal": -0.181},
      {"sequence": "CAGAAAAA", "binding signal": 0.042},
      {"sequence": "GAGACAGA", "binding signal": -0.189}
    ]}
  ]
}
